Experimental data: PubChem BioAssay AID1508623 (National Center for Advancing Translational Sciences (NCATS), 2021)
Out of some 48,000 compounds screened, about 450 (0.94%) were called active. Not shown: some 19% with an inconclusive outcome. Calls come from the whole dose curve; as a rule, active = well fitted inhibition curve with a large enough effect; inconclusive = small, poorly fitted or top-dose-only effect; inactive = no such curve, though single readings can be large or run the other way. Some of the results follow.

assay: Primary qHTS for Identification of Small Molecule Inhibitors of Huntingtin Promoter Activity; conditions: HEK293 HTT promoter firefly luciferase reporter (activity 0% = vehicle and -100% = no light), 24 h; series mostly up to 57.5 µM; activity change, negative = inhibition: at the top concentration; note: nearly all actives have a fitted effect of over 50% in size
Summary of the method: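 HEK293 luciferase promoter-reporter cells (2,500/well) plated 24 h, then compounds added at up to 57.5 uM final for 24 h at 37 °C. Firefly luminescence by Dual-Glo, normalized to vehicle (0%) and zero RLU (-100%).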

Activity change, negative = inhibition, inactive:
O=S(=O)(c1ccc(Cl)cc1)c1nnn2c1nc(NCc1ccccc1)c1sccc12 -13.2%
Cc1ccc(-n2c(=O)[nH]c3sc4c(c3c2=O)CCCC4)cc1 -11.9%
CC(=O)N(Cc1cccnc1)c1nc2cc(C)cc(C)c2s1 -8.95%
CCc1ccc(C(=O)c2cn(CC(=O)Nc3cccc(C)c3C)c3nc(C)ccc3c2=O)cc1 4.54%
COc1ccccc1C(=O)N(Cc1ccco1)Cc1ccccc1F -23.5%
Cc1cccc(NC(=O)CSc2nc(C)c(Cc3ccccc3)c(=O)[nH]2)c1C -9.57%
Cc1ccc(CNC(=O)c2cc(Sc3ccc(F)cc3F)nc3ccccc23)cc1 -19.8%
CCC(C(=O)N(C)Cc1ccccc1)n1nc(C)c2sc3ccccc3c2c1=O (configuration not stated) -24.2%
COc1ccc(CNC(=O)CCc2c(C)nn(-c3ccc(N4CCOCC4)nn3)c2C)cc1 -17.1%
COc1ccc(CCNC(=O)C2=C(C)C(=O)OC23CCCCC3)c(OC)c1 -14.3%
CC(=O)N1CCCC1c1nc2ccccc2n1Cc1cc(C)ccc1C (configuration not stated) -29.5%
Cc1ccc2ccc3cc(C(=O)Nc4ccc(C)c(F)c4)nc3c2[nH]1 -16.6%
COc1ccc(NC(=O)C2CCCN(S(=O)(=O)c3ccc4[nH]c(=O)ccc4c3)C2)cc1OC (configuration not stated) -4.13%
COc1ccc(-c2cc(C(=O)NCCc3ccccc3)c3c(-c4ccccc4)[nH]nc3n2)cc1 -4.5%
O=C(Cc1ccc(F)cc1)Nc1cccc(-c2nc3cccnc3s2)c1 -15.4%
Cc1ccc(CCNS(=O)(=O)c2ccc3c(c2)CCN3C(=O)CCC(=O)O)cc1 -6.32%
CCc1ccc(NC(=O)CCc2c(C)n(C)c3cc(-c4ccccc4C)nn3c2=O)cc1 2.06%
Cc1ccccc1C(=O)N1CCCCC1CCN1CCCCC1 (configuration not stated) -4.74%
CC(=O)N1CCc2c(sc3c2c(=O)n(-c2ccccc2)c(=O)n3Cc2cccc(C(F)(F)F)c2)C1 -22.6%
COc1cccc(N=C2SC(C(=O)Nc3cccc(Cl)c3)CC(=O)N2C)c1 (configuration not stated) -21.9%
CCc1nn(CC(=O)NCCCN2CCN(C)CC2)c(=O)c2cc3occc3n12 -15.4%
CSc1ncc(C(=O)N2CCN(c3ccc(Cl)cc3)CC2)c(C)n1 -1.08%
COc1ccc(C(=O)c2c(N)c(-c3nc(-c4ccccc4)cs3)c3ccccn23)cc1 -11.1%
COc1ccc(C)cc1NC(=O)c1oc2ccc(S(=O)(=O)N3CCOCC3)cc2c1C -10.5%
COC(=O)c1c(NC(=O)COc2ccc(Cl)cc2C)sc2c1CCCCC2 -13.8%
COc1ccc(OC)c(NC(=O)CSC2=Nc3ccccc3C3=NC(CCC(=O)NC4CCCCC4)C(=O)N23)c1 (configuration not stated) -7.52%
Cc1nc2nc(C)c(CCC(=O)NCc3cccc(Cl)c3)c(C)n2n1 0.862%
O=C(Cn1c(=O)n(Cc2ccco2)c(=O)c2sc3ccccc3c21)Nc1ccccc1C(F)(F)F -14.7%
Cc1ccc(-n2nc(C)c3c(C)c(CCC(=O)NCc4ccccc4Cl)c(C)nc32)cc1 -15.5%
COc1ccc(C2=C(C(C)=O)Sc3nnc(-c4ccccc4)n3N2C(C)=O)cc1 -17.2%
CC(=O)NCCNC(=O)c1ccc2c(=O)n(CCc3ccccc3)c(=O)[nH]c2c1 42.1%
Fc1ccc(Cc2cn3cc(-c4ccc(F)cc4)nc3s2)cc1 -22.4%
COc1cc(NC(=O)c2cc3cc4cc(OC)ccc4nc3o2)cc(OC)c1 -1.37%
CCCCNC(=O)NS(=O)(=O)c1ccc(N)cc1 -7.15%
CCOc1cc(C2NC(=O)c3c(sc4c3CCN(C)C4)N2)ccc1OC(=O)c1ccc(F)cc1 (configuration not stated) 13.4%
COC(=O)c1sc2ccccc2c1S(=O)(=O)N1CCN(c2ccc(C(C)=O)cc2)CC1 -30.8%
CC(=O)c1cc(-c2ccc(F)cc2)n(CCC(=O)NC2CCCCC2)c1C -25.7%
CC(C)CNc1cc(NC2CCCCC2)c2c3c(onc13)-c1ccccc1C2=O -28.4%
Cc1ccc(Cl)cc1N1CCN(C(=O)c2cn(C)c3ccc(S(=O)(=O)N4CCCCC4)cc3c2=O)CC1 -16.6% [at 11.5 µM]
CSc1ccc(CCNC(=O)CCc2c(C)nc3c4cccnc4nn3c2C)cc1 -17.1%
COc1cccc(CNCc2c(C(=O)O)c(C)n(Cc3ccc(F)cc3Cl)c2C)c1OC -12.5%
CCSc1nc2sc3c(c2c(=O)n1-c1ccc(C)cc1)CCCC3 -20.8%
CCn1c(=O)n(CC2CCC(C(=O)NC(C)C)CC2)c(=O)c2sccc21 (configuration not stated) 0.692%
CC(C)(C)c1cc(NC(=O)Nc2ccc(-c3cn4c(n3)sc3cc(OCCN5CCOCC5)ccc34)cc2)no1 8.98%
COc1ccc(NC(=O)CSc2c(C(C)C)cnc3c2c(=O)n(C)c(=O)n3C)c(OC)c1 0.303%
CCOC(=O)c1cc(CC)sc1NC(=O)COc1ccccc1C -13.8%
Cc1cc(NC(=O)CN2CCC(O)CC2)nc2c1c(=O)oc1ccccc12 3.43%
COc1ccc(C(=O)NCC(c2ccc3c(c2)OCO3)N2CCN(C)CC2)cc1OC (configuration not stated) -3.93%
CCOC(=O)c1c(C)[nH]c(C)c1S(=O)(=O)N1CCC(C(=O)Nc2ccc(OC)c(OC)c2)CC1 -10.6%
CCN1CCN(c2ncnc3c2cnn3-c2ccc(F)cc2)CC1 57.4%
COc1ccc(CC(=O)Nc2ccc(-c3nc4ccccc4s3)c(C)c2)cc1 31.7%
CC(C)c1nc2sc3c(N4CCCCC4)ncnc3c2c2c1CCCC2 -1.22%
CCOc1ccc(-n2c(SCC(=O)c3ccccc3)nc3c([nH]c4ccccc43)c2=O)cc1 -5.26%
COC(=O)c1ccc(CSc2nc3ccncc3n2Cc2ccc(F)cc2)cc1 -9.77%
COCC(C)Nc1ncnc2c1cnn2-c1cccc(Cl)c1 (configuration not stated) 18%
COc1ccc(C(=O)Oc2ccc(C3NC(=O)c4c(sc5c4CCN(C)C5)N3)cc2OC)cc1 (configuration not stated) 8.85%
Cc1cccc(Cc2c(C)nc3nc(SCc4cccc(F)c4)nn3c2C)c1 -25.6%
O=S(=O)(c1ccccc1)c1nnn2c1nc(NC1CCCCCC1)c1sccc12 -1.8%
CCOc1ccc(CCNC(=O)CN2C(=O)COc3ccc(S(=O)(=O)N(CC)CC)cc32)cc1 -24.6%
Cc1ccc(Cn2ccnc2SCC(=O)NC2CCCC2)cc1 -19.5%
COc1cc(S(=O)(=O)n2ccnc2C(C)C)ccc1Br -14%
COc1ccc2c(CNCc3ccco3)c(C(=O)O)n(Cc3ccccc3)c2c1 -20.5%
